Molecules are shown by their SMILES. Over roughly 13,000 compounds, “IFI” has its median near 4; the highest 2% begin near 17. The list shows a part of the results.

This experiment in a line: GSK_TCMDC: Inhibition Frequency Index (IFI). The number of non-kinase HTS assays where a compound showed > 50 % inhibition, expressed as a percentage of the number of such assays in which the compound was tested (-0 is zero). Type of experiment: functional.
As for `Cc1ccccc1C1CCN(C2CCC(NC(=O)/C=C/c3c(F)ccc(F)c3F)CC2)CC1` (stereo not drawn), the IFI worked out at 6.67%. Take `CCCCCCCCn1c2c(c(=N)c3c1CCC3)CCCC2`: the IFI is 16.7%. `CC(CN1CCN(CC(c2ccc(F)cc2)N2CCN(C)CC2)CC1)C(=O)c1ccc(O)cc1` (stereo not drawn) yielded an IFI of 0.82%. The compound `O=C(O)c1ccc2nc(-c3ccccn3)c(-c3ccccn3)nc2c1` yielded an IFI of -0%.

In turn, `OC(CNc1ccnc(Nc2ccc(Cl)cc2)n1)c1cccc(C(F)(F)F)c1` (stereo not drawn) returned an IFI of 16.3%. In the case of `N#Cc1ccc(C=NNc2nc3ccccc3[nH]2)cc1` it was 0.71%. `Cc1ccc(NC(=O)Nc2cccc(Cl)c2)cc1-c1ccc(C(=O)Nc2ccncc2)cc1` had an IFI of 25.4%. Compound `COc1ccccc1C1CCN(C2CCC(NC(=O)/C=C/c3cc(F)c(F)cc3F)CC2)CC1` (stereo not drawn) yielded an IFI of 4.84%. `CC1(CCc2ccccc2)N=C(Nc2ccc(Cl)cc2)N=C(N)C1c1ccc(Cl)c(Cl)c1` (stereo not drawn) gave an IFI of 26.6%. Regarding `CNC(=O)c1ccccc1Nc1nc(Nc2ccc(CCN3CCN(C)CC3)cc2)ncc1Cl`, the IFI turned out to be 15.4%. Compound `COc1cc2ncnc(Nc3ccc(OCc4ccccc4Br)c(OC)c3)c2cc1OC` yielded an IFI of -0%. Take `Oc1cccc(CNCCCN(Cc2ccccc2)c2ccccc2)c1`: the IFI came to 4.29%.

`CC(=O)Oc1c(Br)c(C)nc(C)c1-c1ccc(Oc2ccc(OC(F)(F)F)cc2)cc1` gave an IFI of 4.76%. Turning to `CCCCCC(C)N/C(=N/c1ccccc1Br)Nc1ccc(C#N)cc1O` (stereo not drawn), the IFI turned out to be 0.76%. The compound `Cc1cc(NC(=O)Nc2ccc3nc(C)oc3c2)c2cc(Cl)ccc2n1` registered an IFI of 1.43%. The compound `Cc1oc(-c2ccc(Cl)cc2)cc1C(=O)NCCC1CCN(CCCCCNC(=O)/C=C/c2ccc(Cl)c(Cl)c2)CC1` registered an IFI of 16.6%. With `COC(=O)c1ccc(N2CCN(CCCCNC(=O)c3ccc(NC(=O)c4ccc(Cl)cc4)cc3)CC2)c(OC)c1`, the IFI is 1.87%.

Compound `CCCCn1c(Sc2ccc(C#N)c([N+](=O)[O-])c2)nnc1-c1cc(OC)cc(OC)c1` displayed an IFI of 4.23%. The compound `COc1ccc(-c2nnc(Sc3ccc(C#N)c([N+](=O)[O-])c3)n2CC(C)C)cc1` returned an IFI of 2.11%. In turn, `Cc1cc(C(F)(F)F)n2nc(C(=O)N(Cc3cncn3Cc3cccc(F)c3)CC3CC3)cc2n1` displayed an IFI of 2.67%. `c1cn(CCCNc2ncc(-c3ccsc3)c(-c3nccs3)n2)cn1` came in with an IFI of 2.25%. To `Cc1cccc2nc(-c3cccc(-c4ccc(NC(=O)Nc5ccsc5)cc4)c3)[nH]c12` belongs 7.84%; to `CN(C)C(CNC(=O)c1cc(-c2ccncc2)c(-c2ccc(NC(=O)Nc3cccc(Cl)c3)cc2)o1)c1ccccc1` (stereo not drawn), 8.11%; to `O=C(Nc1cccc(-c2cccc(CN3CCCC3)c2)c1)c1cccc(Cl)c1`, 4.9%. As to `CN1CCC(Oc2ccc(CN3CC[C@H](NC(=O)c4cccc(C#N)c4)C3)c3ccccc23)C1` (stereo partly drawn), the IFI turned out to be 2.11%. As to `O=C(Nc1ccc(Cl)c(Cl)c1)Nc1ccc2c(c1)CCNCC2`, the IFI amounted to 3.28%. In turn, `CN1C(=C2SC(=Nc3ccc4ncccc4c3)N(Cc3ccccc3)C2=O)Sc2ccc(Cl)cc21` showed an IFI of 2.38%. In turn, `CC(C)Sc1nc2c(c(=O)n1CCc1ccccc1)C1(CCCCC1)Cc1ccccc1-2` gave an IFI of 1.43%. For the compound `Cc1ccc2[nH]c(-c3ccc(C=CC(=O)NCc4ccc(Cl)c(Cl)c4)cc3)nc2c1`, the IFI stood at 2.24%. To `CNC(=O)COc1cc(C)c(C2CCN(CCCCNC(=O)c3ccc(-c4ccc(C(F)(F)F)cc4)cc3)CC2)cc1C` belongs 7.14%; to `COc1cc(Cc2cnc(N)nc2N)cc(OCCCOc2ccccc2)c1OC`, 0.75%; to `Cc1cccc2nc(-c3ccc(-c4ccc(CNCc5ccc(S(C)(=O)=O)cc5)cc4)cc3)[nH]c12`, 6.8%. To `O=C(Nc1ccsc1)Nc1cccc(-c2ccc(-c3nc4cc(C(F)(F)F)ccc4[nH]3)cc2)c1` belongs 5.88%. As for `O=C(NCCN1CCCCC1)N1CCCN(c2ncnc3cc(-c4ccccc4)sc23)CC1`, the IFI amounted to 1.96%.

With `Cc1cc(Br)cnc1CCCCNc1cc(=O)c2ccccc2[nH]1`, the IFI came to 9.09%.

Regarding `Cc1cccnc1Nc1nc(-c2ccccn2)cs1`, the IFI was found to be 10.4%. Compound `O=C(NCc1ccccc1)C1Cc2c([nH]c3ccc(Br)cc23)C2(CCN(Cc3ccccc3)CC2)N1` (stereo not drawn) came in with an IFI of 6.38%. On to `CCc1ccc(CN(Cc2ccc(C)cc2)Cc2ccc(NC(C)=O)cc2)cc1`, for which the IFI was found to be 1.43%. The compound `O=C(Cn1c(CCc2cccc(F)c2F)nc(=O)c2ccccc21)N(Cc1ccc(-c2ccc(C(F)(F)F)cc2)cc1)C1CCN(C2=NCCS2)CC1` gave an IFI of 12.5%. As to `COc1ccc2nccc([C@@H](O)CN3CCC(NCCOc4ccc(F)cc4[N+](=O)[O-])CC3)c2c1`, the IFI turned out to be 2.21%. `Fc1ccc2nc(Nc3nc(-c4ccccn4)cs3)sc2c1`: the IFI was found to be 9.17%. For the compound `COc1ccc2c(c1)ncn2-c1cc(OCc2ccncc2Br)c(C(N)=O)s1`, the IFI amounted to 3.81%. With `O=C(CSc1nc(-c2ccccc2Cl)ns1)Nc1cccc(F)c1`, the IFI was 5.65%. The compound `CC1=C(C(=O)Nc2cc3cn[nH]c3cc2F)C(c2cccc(O)c2F)CC(=O)N1` (stereo not drawn) gave an IFI of 0%. The compound `OCCN1CCN(Cc2cccc(-c3cccc(-c4nc5cc(F)ccc5[nH]4)c3)c2)CC1` registered an IFI of 3.92%. In the case of `CC(Cc1ccc(C(=O)OCCOC(=O)c2ccc(CC(C)NCC(O)c3cccc(C(F)(F)F)c3)cc2)cc1)NCC(O)c1cccc(C(F)(F)F)c1` (stereo not drawn) it was 8.97%; in that of `CCOc1ccccc1CON1C(N)=NC(N)=NC1(C)C`, 3.73%.

`OCCOCCNCc1cccc(C#Cc2cc3ncnc(Nc4ccc(OCc5cccc(F)c5)c(Cl)c4)c3s2)n1`: the IFI is 4.38%. As to `c1cc(-c2ccc(CNCCc3ccncc3)cc2)cc(-c2nc3ccccc3[nH]2)c1`, the IFI was 3.85%. With `O=C(NC1CC1)c1cnc(N2CCC(Oc3ccc(Cl)cc3)CC2)c(Cl)c1`, the IFI was 12%. For `CCCCN(CCCC)CCCCNc1c2ccc(Cl)cc2nc2ccc(OC)cc12`, the IFI is 6.87%. The compound `COc1ccc(-n2nc(C)c3c2NC(=O)CC3c2ccccc2OCc2ccc(F)cc2)cc1` (stereo not drawn) registered an IFI of 10.3%. For the compound `Cc1cccc(Nc2nc(C)cc(N3CCCN(CC4CCCCC4)CC3)n2)c1`, the IFI is 3.66%.

`Cc1ccc(NC(=O)c2ccc(N3CCN(c4ccncc4)CC3)cn2)cc1F` gave an IFI of 11.1%. In turn, `O=C(/C=C/c1ccc(Cl)c(Cl)c1)NCCCCCN1CCC(NC(=O)Nc2ccc(Cl)cc2F)CC1` displayed an IFI of 13%. In the case of `CC(=O)c1nccc(C)c1N`, the IFI turned out to be 0%.

In the case of `O=C(Nc1cc(Cl)ccc1O)c1cnn2c(C(F)(F)F)cc(-c3cccs3)nc12`, the IFI worked out at 0%. To `Cc1ccc(NC(=O)c2ccnc(N3CCN(c4ccncc4)CC3)c2)cc1F` belongs 5.71%; to `COc1ccc2nc3cc(Cl)ccc3c(Nc3ccc(C(=O)O)cc3)c2c1`, -0%; to `Cc1cccc2nc(-c3cccc(-c4cccc(C(=O)NCCN5CCCC5)c4)c3)[nH]c12`, 5.41%. `COc1cc2c(cc1OC)-c1cc(=Nc3c(C)cc(C)cc3C)n(C)c(=O)n1CC2` came in with an IFI of 5%. The compound `Cn1c(=O)c(-c2c(Cl)cccc2Cl)cc2cnc(Nc3ccc(N4CCOCC4)cc3)nc21` gave an IFI of 6.25%. On to `FC(F)(F)c1ccc2[nH]c(-c3ccc(-c4ccc(CN5CCN(c6ccncc6)CC5)cc4)cc3)nc2c1`, for which the IFI worked out at 13.5%. `COc1ccc(CNc2ncnc3c2[nH]c2ccc(F)cc23)cc1` came in with an IFI of 17.2%.

As for `COc1ccccc1N=C1SC(=Cc2cn(CC(=O)N3CCCc4ccccc43)c3ccccc23)C(=O)N1C1CCCCC1`, the IFI was 2.17%. `O=C(Nc1ccc([N+](=O)[O-])cc1Br)c1cc2ccccc2nc1Cl` came in with an IFI of -0%. Compound `Cc1cccc2nc(-c3ccc(-c4cccc(CN5CCN(CCO)CC5)c4)cc3)[nH]c12` returned an IFI of 3.96%. In the case of `c1ccc(CCNCc2ccc(-c3cccc(CNc4ccc5ncccc5c4)c3)cc2)cc1` it was 9.09%. To `CC(C)CNC(=O)c1cncc(-c2ccc(CNCCCc3ccccc3)cc2)c1` belongs 4.84%.

For `O=C(CCNc1ccnc(NCCc2ccc(F)cc2)n1)Nc1ccccc1`, the IFI turned out to be 4.55%. The compound `O=c1cc(NCCCNCc2cc(Cl)cc(Cl)c2OCc2ccccc2)[nH]c2ccccc12` had an IFI of 5.15%. In the case of `CC(=O)Nc1ccc(CN2CCC(CNC(=O)c3cc(-c4cccc(C(F)(F)F)c4)cs3)C2)cc1` (stereo not drawn) it was 8.16%. In the case of `Cc1nc(C)c(-c2ccc(Oc3cc(Cl)cc(Cl)c3)cc2)c(O)c1Br`, the IFI is 2.31%. In turn, `Cc1cc(N/N=C/c2ccccc2[N+](=O)[O-])c2cccc(C)c2n1` came in with an IFI of 0.77%. `Fc1ccccc1C=NN=c1cc[nH]c2ccc(C(F)(F)F)cc12` registered an IFI of 0.75%. In the case of `CN(C)CCNc1cc(-c2cccnc2)nc(-c2ccncc2)n1`, the IFI was 0%. Compound `O=C(NC1CCN(c2ccnc(Nc3ccc(F)cc3)n2)C1)c1cc2ccccc2s1` (stereo not drawn) came in with an IFI of 3.08%. As to `CN(C)Cc1ccc(-c2ccc(NC(=O)c3ccc4c(=O)n(Cc5ccccc5)cnc4c3)cc2)cc1`, the IFI came out at 7.84%. `CCN1CCN(CCCNc2ccnc3cc(Cl)ccc23)CC1` showed an IFI of -0%. To `O=C(CSc1nc(-c2ccccc2Cl)ns1)Nc1cccc(Cl)c1` belongs 7.14%; to `CCOc1ccc(-c2nonc2NC(=O)c2ccc(F)cc2)cc1OCC`, -0%; to `Cc1ccc(C2CCN(CCCCNC(=O)c3ccc(-c4ccc(C#N)cc4)cc3)CC2)c(O)c1`, 7.48%.

In turn, `NC(=O)c1ccc(-c2ccc3ccnc(N)c3c2)cc1` had an IFI of 5.62%.

On to `COc1ccccc1NS(=O)(=O)c1cc(C(=O)Nc2ccc(N3CCOCC3)c(S(=O)(=O)Nc3ccccc3Cl)c2)ccc1Cl`, for which the IFI amounted to 1.43%.

Compound `O=C(Cc1cccc(O)c1)Nc1ccc(-c2cccc(-c3nc4cc(C(F)(F)F)ccc4[nH]3)c2)cc1` yielded an IFI of 8.93%. Regarding `Clc1ccc(-c2cc(-c3csc(NCCN4CCOCC4)n3)on2)c(Cl)c1`, the IFI came to 10.8%. Turning to `Cc1ccc2c(c1[N+](=O)[O-])N=NCC2Oc1ccccc1` (stereo not drawn), the IFI worked out at 0.74%. Take `COc1ccc2c(O)c(C3CCC(c4ccc(Cl)cc4)CC3)c(C)nc2c1` (stereo not drawn): the IFI is 2.24%. In the case of `CC(C)CNCc1cccc(-c2cccc(CNCCCN3CCN(C)CC3)c2)c1` it was 1.46%; in that of `O=c1cc(NCCCNCc2ccc(Cl)c(Cl)c2)[nH]c2ccc(Oc3ccccc3)cc12`, 2.78%; in that of `COc1ccc(C(F)(F)F)cc1N1CCN(CCCCNC(=O)c2ccc(NC(=O)c3ccc(Cl)cc3)cc2)CC1`, 1.8%.

`CCOC(=O)c1c(CSc2ccccc2)oc2cc(CN(C)C)c(O)c(Cl)c12` registered an IFI of 1.55%. The compound `CN(Cc1ccccc1)C1CCCN(c2cc(NC(=O)c3cccs3)ccn2)C1` (stereo not drawn) registered an IFI of 2.7%.

The record behind these values is ChEMBL document CHEMBL1157539, “Thousands of chemical starting points for antimalarial lead identification” (Nature, 2010).
